Assay results from the supplement of paper PMC10600219.
Counter-ions that a name gives are not always drawn. In all, about 2,800 compounds were measured (“cell viability relative to vehicle”: median about 1.1, lowest 2% from about 0.19 on). This is one part of the list.

Each compound was assayed on NCI-H2228 parental (assay: cell viability relative to vehicle (fraction of vehicle); NCI-H2228 is an ALK-positive lung cancer line and DTP means drug-tolerant persister; higher = less growth inhibition). Settings: 100 nM; treatment time 6 days.
How it was run: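 Values give cell viability as a fraction of vehicle-treated cells. Parental and drug-tolerant persister NCI-H2228 cells (persisters made with 1000 nM of a targeted drug for 13 days) were exposed in 384-well plates to the 3114-agent TargetMol anti-cancer compound library at 100 nM, with DMSO as vehicle. ATP was then read after 6 days by the CellTiter-Glo 3D Cell Viability Assay.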
Work on `CC(N)CCCC(C)(C)O` (stereo not drawn) [Heptaminol hydrochloride] yielded a cell viability of 0.996. `CNC(=O)c1cc(Oc2ccc3nc(N[C@@H]4CCCC[C@H]4O)sc3c2)ccn1` showed a cell viability of 1.09. `Cn1cc(/C=C2\C(=O)Nc3cccnc32)c2ccccc21` showed a cell viability of 0.883. Compound `CNC(=O)c1ccc(Nc2ncc(C(F)(F)F)c(NCc3nccnc3N(C)S(C)(=O)=O)n2)cc1` [Defactinib] has a cell viability of 1.03. Compound `Cc1ccc(NC(=O)C2(c3ccc4c(c3)OC(F)(F)O4)CC2)nc1-c1cccc(C(=O)O)c1` [Lumacaftor] has a cell viability of 1.19. In the case of `O=C(NN=Cc1c(O)ccc2ccccc12)c1ccncc1`, the cell viability is reported as 0.84. `C[C@H]1[C@H](C)CC[C@]2(C(=O)O[C@@H]3O[C@H](CO[C@@H]4O[C@H](CO)[C@@H](O[C@@H]5O[C@H](C)[C@H](O)[C@@H](O)[C@H]5O)[C@H](O)[C@H]4O)[C@@H](O)[C@H](O)[C@H]3O)CC[C@]3(C)C(=CC[C@@H]4[C@@]5(C)C[C@@H](O)[C@H](O)[C@@](C)(CO)[C@@H]5CC[C@]43C)[C@H]12` [Asiaticoside] was tested, and the cell viability was 1.11. Compound `C=C1CC/C=C(\C)CC[C@@H]2[C@@H]1CC2(C)C` [β-Caryophyllene] has a cell viability of 0.986. For `OCCOc1ccc(/C(=C(/CCCl)c2ccccc2)c2ccccc2)cc1` [Ospemifene], the cell viability was 1.08. `CC(C)OC(=O)C(C)(C)Oc1ccc(C(=O)c2ccc(Cl)cc2)cc1` [Fenofibrate] showed a cell viability of 1.05. `CC=CC1=C(C(=O)O)N2C(=O)[C@@H](NC(=O)[C@H](N)c3ccc(O)cc3)[C@H]2SC1` [Cefprozil hydrate] showed a cell viability of 0.984. `Nc1nc(OCC2CCCCC2)c2[nH]cnc2n1` showed a cell viability of 1.03. For `CCn1c(-c2nonc2N)nc2c(C#CC(C)(C)O)ncc(OC[C@H]3CCCNC3)c21`, the cell viability was 0.94. `NS(=O)(=O)c1ccc(S(=O)(=O)Nc2cccc3c(Cl)c[nH]c23)cc1` [Indisulam] showed a cell viability of 0.949. `CCN(CC)CCOc1ccc(Nc2ncc3cc(-c4c(Cl)cccc4Cl)c(=O)n(C)c3n2)cc1` was tested, and the cell viability was 0.362. In the case of `CN1C(=O)C(Cc2c[nH]c3ccccc23)NC1=S` (stereo not drawn) [Necrostatin-1], the cell viability is reported as 1. `CC1(C)C(O[C@@H]2OC[C@@H](O)[C@H](O)[C@H]2O)CC[C@]23CC24CC[C@]2(C)[C@@H]([C@@]5(C)CC[C@@H](C(C)(C)O)O5)[C@H](O)C[C@@]2(C)C4C[C@@H](O[C@@H]2O[C@H](CO)[C@@H](O)[C@H](O)[C@H]2O)C13` (stereo partly drawn) [Astragaloside IV] showed a cell viability of 0.927. `COc1cc2ncnc(Nc3cccc(Cl)c3)c2cc1OC` showed a cell viability of 0.877. `Cc1[nH]nc(C(F)(F)F)c1Cc1sc2c(c1C(=O)N1C[C@](C)(O)CO1)c(=O)n(C)c(=O)n2C(C)C` showed a cell viability of 1.06. Compound `O=c1oc2cc(O)ccc2s1` [Tioxolone] has a cell viability of 1.17. `O=C(O)c1ccccc1O` [Salicylic acid] gave a cell viability of 0.999. Compound `Nc1ncnc2c1ncn2C1OC(COP(=O)(O)O)C(O)C1O` (stereo not drawn) [Adenosine 5'-monophosphate monohydrate] has a cell viability of 1.09. Compound `COc1cc2ncnc(-n3nc(-c4ccccn4)nc3N)c2cc1OC` has a cell viability of 1.04. In the case of `CS(=O)(=O)c1ccc(-c2nnc(/C=C/c3nnc(-c4ccc(C#N)cc4)o3)n2-c2ccccc2Cl)nc1`, the cell viability is reported as 0.803. With `COC(=O)c1ccc(O)c(OC)c1` [Methyl Vanillate] the cell viability was 1.18. In the case of `O=C(O)[C@H](CC(=O)N1C[C@H]2CCCC[C@H]2C1)Cc1ccccc1` [Mitiglinide calcium], the cell viability is reported as 1.14. With `C[C@]12CCC3=C4CCC(=O)C=C4CC[C@H]3[C@@H]1CC[C@@]2(O)CC#N` [Dienogest] the cell viability was 1.25. `COc1c(O)cc2oc(-c3ccccc3)cc(=O)c2c1O` [Oroxylin A] was tested, and the cell viability was 1.09. Compound `NC(=O)c1ccc(I)c([N+](=O)[O-])c1` [Iniparib] has a cell viability of 1.15. For `c1ccc(-c2oc3ncnc(NC[C@@H]4CCCO4)c3c2-c2ccccc2)cc1`, the cell viability was 1.06. `C#C[C@]1(O)CC[C@H]2[C@@H]3CCC4=CC(=O)CC[C@@H]4[C@H]3C(=C)C[C@@]21CC` [Etonogestrel] was tested, and the cell viability was 1.07. With `O=C(O)c1cc(/N=N/c2ccc(S(=O)(=O)Nc3ccccn3)cc2)ccc1O` [Sulfasalazine] the cell viability was 0.845. `CCCCCCCCCCCCCCCC(=O)O` [Palmitic acid] showed a cell viability of 1.02. `N#C/C(=C\c1ccc(O)c(O)c1)C(=O)NCCCc1ccccc1` gave a cell viability of 1.05. `C/C(=C\C(=O)OCCCCCCCCC(=O)O)C[C@@H]1OC[C@H](C[C@@H]2O[C@H]2[C@@H](C)[C@H](C)O)[C@@H](O)[C@H]1O` [Mupirocin] showed a cell viability of 1.29. In the case of `Cc1cn([C@H]2C[C@H](O)[C@@H](COP(=O)(O)OP(=O)(O)OP(=O)(O)O)O2)c(=O)[nH]c1=O` [Deoxythymidine triphosphate], the cell viability is reported as 1.06. Compound `O=C(O)c1cc(N(Cc2ccccc2O)Cc2cc(O)ccc2O)ccc1O` [lavendustin A] has a cell viability of 0.845. Work on `COc1ccc(S(=O)(=O)N(Cc2cccnc2)[C@@H](C(=O)NO)C(C)C)cc1` yielded a cell viability of 1.12.
